# Among all 390,000 compounds or so, about 150 (0.038%) were called active. The inconclusive results got no clear call from the source; some entries with a clear call stand among them for comparison. The call rests on the fitted dose curve; in most records, active means well fitted inhibition curve with a large enough effect; inconclusive means small, poorly fitted or top-dose-only effect; inactive means no such curve, though single readings can be large or run the other way. A potency beside an inconclusive call is a rough fit, not a confirmed value.
# Biological target: Regulator of G-protein signaling 4 (Homo sapiens) (UniProt P49798)
# Chain of UniProt P49798 (P49798 whole entry, looked up): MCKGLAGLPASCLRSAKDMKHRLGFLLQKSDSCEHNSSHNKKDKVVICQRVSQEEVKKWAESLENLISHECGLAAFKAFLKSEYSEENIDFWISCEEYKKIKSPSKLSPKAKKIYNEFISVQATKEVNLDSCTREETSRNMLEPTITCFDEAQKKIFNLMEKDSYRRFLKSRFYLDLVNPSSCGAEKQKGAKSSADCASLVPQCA
# Experiment: Inhibitors of Regulator of G Protein Signaling (RGS) 4: qHTS; further: nearly all actives have a fitted effect of over 75% in size
# Settings: Transcreener GDP fluorescence polarization, RGS4-accelerated GTP hydrolysis; series mostly up to 114 µM; activity change, negative = inhibition: at the top concentration
# In short: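 MLSMR compounds (23 nl, pin-transferred) preincubated 10 min at room temperature with a 500nM (2x) first reagent, then RGS4 at 900nM (2x) plus Transcreener GDP mix added; fluorescence polarization (620/688 nm) read before and after 90 min at 30 °C.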
# On the % scale 0 is the no-effect control and ±100 the full control effect; potency means the concentration at half of the fitted maximal effect; tags describe the fitted curve by direction and shape.
SMILES,Potency,"activity change, negative = inhibition"
CCNC(=O)NC(=O)CSc1nc2ccccc2n1CCOC,"inconclusive: 70.8 µM [inhibitor, single point]",
O=C(Nc1cccc2ccccc12)c1ccc(Br)o1,"inconclusive: 89.1 µM [inhibitor, single point]",
COc1ccc(N(CC(=O)Nc2ccc(C)c(C)c2)S(=O)(=O)c2ccc(C)cc2)cc1OC,,inactive: 4.76%
Nc1ccc2c(c1)[nH]c(=O)c1ccccc12,"inconclusive: 89.1 µM [inhibitor, single point]",
CC(C)C(C)NC(=O)CSc1nc2scc(-c3ccco3)c2c(=O)n1-c1ccccc1 (stereo unspecified),"inconclusive: 44.7 µM [inhibitor, partial curve, poor fit]",
COc1ccc(CCNC(=O)C2CCN(C(=O)c3ccc(Br)cc3)CC2)cc1,"inconclusive: 89.1 µM [inhibitor, single point]",
COc1ccc(/C=C/c2nnc(NC(=O)CSc3ccc(Cl)cc3)s2)cc1,"inconclusive: 79.4 µM [inhibitor, single point]",
Cc1nn(-c2ccccc2)c(N)c1Sc1cccc([N+](=O)[O-])c1,"inconclusive: 50.1 µM [inhibitor, partial curve, poor fit]",
CN(C)C(=S)N=c1ssc(=S)n1Cc1ccco1,"inconclusive: 79.4 µM [inhibitor, partial curve, poor fit]",
Cc1ccc(C(C)(C)C)c(OCCOCCN2CCCC2)c1,,inactive: -28.2%
CO/N=C/c1ccc(Oc2ccc(C)cc2)c([N+](=O)[O-])c1,"inconclusive: 20 µM [inhibitor, full curve, poor fit]",
COc1ccc(-c2ccnc(-c3ccc(OCCCF)cc3)n2)cc1,"inconclusive: 89.1 µM [inhibitor, single point]",
Cc1ccc(C2C=C(c3ccccc3)Nc3nc(N4C(=O)CCC4=O)nn32)cc1 (stereo unspecified),"inconclusive: 17.8 µM [inhibitor, full curve, poor fit]",
Cc1nc(-c2cccc(S(=O)(=O)N3CCOCC3)c2)cs1,"inconclusive: 35.5 µM [inhibitor, full curve, poor fit]",
CCOC(=O)CSC1=C(C#N)C(=O)NC(c2ccc(OC)c(OC)c2)S1 (stereo unspecified),"inconclusive: 25.1 µM [inhibitor, full curve, poor fit]",
O=C(Nc1ccc2c(c1)C(=O)N(C1CCCCC1)C2=O)C1CCCO1 (stereo unspecified),,inactive: 11.5%
O=C(O)c1ccc(S(=O)(=O)Nc2ccc(O)c(Sc3nc4ccccc4s3)c2)cc1,"inconclusive: 50.1 µM [inhibitor, partial curve, poor fit]",
Cc1cc(Cl)cc(Br)c1OCCNCC(C)O (stereo unspecified),,inactive: -13.4%
CC(C)C[C@@H](CNCC(=O)[C@H](Cc1c[nH]c2ccccc12)NC(=O)c1[nH]cnc1C(=O)N[C@@H](C)CN)NC(=O)c1nc[nH]c1C(=O)N[C@@H](CC(=O)O)C(=O)O,"inconclusive: 39.8 µM [inhibitor, partial curve, poor fit]",
CC1CCCCC1NC(=S)NC(=O)c1ccccc1Cl (stereo unspecified),,inactive: -12.4%
COc1ccc(C(C)=O)cc1COc1cccnc1[N+](=O)[O-],,inactive: -14.3%

SMILES,Potency,"activity change, negative = inhibition"
COCCOC(=O)c1c(C)n(C)c2ccc(OC(=O)c3c(OC)cccc3OC)cc12,"inconclusive: 50.1 µM [inhibitor, partial curve, poor fit]",
O=C(CSc1nc2ccccc2s1)Nc1cc(S(=O)(=O)N2CCOCC2)ccc1O,"inconclusive: 100 µM [inhibitor, partial curve, poor fit]",
COc1cc2sc3ccc(-c4ccc5[nH]ccc5c4)cc3c(=O)c2cc1OC,,inactive: -28.5%
O=C(NCc1cccc(Cl)c1)c1ccc(NC(=O)N2CCSc3ccccc32)cc1,,inactive: -35.7%
C#CCOCCOCCOCCNc1nc(N2CCN(C(=O)CCCCCCCCCCNC(=O)[C@H]([C@@H](C)CC)n3cc(CCCCN=C(N)N)nn3)CC2)nc(N2CCN(C(=O)CCCCCCCCCCNC(=O)[C@H](CCCCN)n3cc(C)nn3)CC2)n1,"inconclusive: 25.1 µM [inhibitor, full curve, poor fit]",
COc1ccccc1/C=C/C(=O)/C=C/c1ccccc1O,,inactive: -35.1%
CCc1ccc(C(=O)NC(=S)NCc2cccnc2)cc1,"inconclusive: 79.4 µM [inhibitor, single point]",
Cc1cc(C)nc(SCC(=O)NC2=NN=C(c3ccc(Br)cc3)CS2)n1,"inconclusive: 89.1 µM [inhibitor, single point]",
COc1ccc(-n2nc(C(=O)NCCc3ccc(OC)c(OC)c3)c3c4ccccc4n(C)c3c2=O)cc1,,inactive: -19.5%
CCCOc1ccc(-c2nnn(CC(=O)N3CCCC(C)C3)n2)cc1 (stereo unspecified),,inactive: 59.1%
O=C(N/N=C\CCc1ccccc1)c1ccco1,"inconclusive: 44.7 µM [inhibitor, partial curve, poor fit]",
O=C(CN1C(=O)c2ccccc2C1=O)Nc1ccc(Cl)cn1,"inconclusive: 50.1 µM [inhibitor, partial curve, poor fit]",
O=C(Nc1cccc(C(=O)OCc2cc(=O)n3c4c(sc3n2)CCCC4)c1)c1cccc(F)c1,,inactive: -10.1%
O=C(COc1ccccc1Br)N1CCN(c2ccccc2)CC1,,inactive: 10.2%
Nc1c(C(=O)NCC2CCCO2)sc(=S)n1-c1ccccc1 (stereo unspecified),"inconclusive: 35.5 µM [inhibitor, full curve, poor fit]",
Cc1ccc(C)c(-n2cc(CN3CCCN(C=O)CC3)c(-c3ccccc3)n2)c1,,inactive: 26.3%
C/C=C/c1ccc(OCC(=O)OCc2csc(Nc3ccc(C)cc3)n2)c(OC)c1,,inactive: 6.14%
O=C(/C=C/c1ccco1)Nc1cccc(S(=O)(=O)N2CCOCC2)c1,,inactive: -20.2%
OCCN1CCN(CC(O)COCCOc2ccc(Br)cc2)CC1 (stereo unspecified),"inconclusive: 56.2 µM [inhibitor, partial curve, poor fit]",
C#CCOCCOCCOCCNc1nc(N2CCN(C(=O)CCCCCCCCCCNC(=O)[C@H](CCCCN)n3cc(C)nn3)CC2)nc(N2CCN(C(=O)CCCCCCCCCCNC(=O)[C@H](CCCN=C(N)N)n3cc(C[C@@H](C)CC)nn3)CC2)n1,"inconclusive: 28.2 µM [inhibitor, full curve, poor fit]",

# Reference: PubChem BioAssay AID504845 (National Center for Advancing Translational Sciences (NCATS), 2011)
